# This is one part of the list.
# B1: B160 (Bifidobacterium sp) (protein)
# chain: MVSHNKRIVAALAAVAAMGIGLAGCGGSDTAGDTKSGSDGGVVNITYMHRLPDSEGMTLVNDIVAKWNKEHPNIQVKATKFDGNAADMIKKLETDVKAGNAPDLAQVGYAEVPEVFTKGLLQDVTDEAAKYKDDFASGPFALMQVDGKTYGLPQDTGPLTYFYNAAEFEKLGITVPKTADELIETAKKTAAQGKYIMTFTPDEAMMMMSGQAGASGPWYKVDGNSWVVNTQTKGSKAVADVYQQLIDNKAALTNPRWDASFDNSIQSGQLIGTVAAAWEAPLFIDSAGGTGAGEWKVTQLGDWFGNGTKTGANGGSGVAVLKGSKHPAEAMEFLDWFNTQVDDLVSQGLVVAATTADAKTPQKWSDYFSGQDVMAEFKTANDNMGDFTYMPGFSAVGAAMKQTAAKAADGSAKVSDVFDTAQKTSVDTLKNLGLSVKE
# How the values were obtained:
# Test in all cases: glycan array binding signal (z-score within array); higher = stronger binding
# Conditions in all cases: glycan notation: IUPAC condensed, linker removed
# Fuc(a1-2)Gal = target: Fuc(a1-2)Gal
# In short: (§1)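 Glycan array binding is given as a within-array Z-score, which can be read as non-binding when negative. The arrays, 3228 of them, came from the Consortium for Functional Glycomics database and were retained only where the protein sequence was available. Z-scores were averaged across arrays of the same protein sequence at different concentrations or buffers and across linkers.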
# Fuc(a1-2)Gal(b1-3)GalNAc = target: Fuc(a1-2)Gal(b1-3)GalNAc
# In short: as §1
# [1] = target: Fuc(a1-2)Gal(b1-3)GalNAc(a1-3)[Fuc(a1-2)]Gal(b1-4)Glc
# In short: as §1
# [2] = target: Fuc(a1-2)Gal(b1-3)GalNAc(a1-3)[Fuc(a1-2)]Gal(b1-4)GlcNAc
# In short: as §1
# [3] = target: Fuc(a1-2)Gal(b1-3)GalNAc(b1-3)Gal
# In short: as §1
# [4] = target: Fuc(a1-2)Gal(b1-3)GalNAc(b1-3)Gal(a1-4)Gal(b1-4)Glc
# In short: as §1
# [5] = target: Fuc(a1-2)Gal(b1-3)GalNAc(b1-4)[Neu5Ac(a2-3)]Gal(b1-4)Glc
# In short: as §1
# Fuc(a1-2)Gal(b1-3)GlcNAc = target: Fuc(a1-2)Gal(b1-3)GlcNAc
# In short: as §1
# [6] = target: Fuc(a1-2)Gal(b1-3)GlcNAc(b1-2)Man(a1-3)[Fuc(a1-2)Gal(b1-3)GlcNAc(b1-2)Man(a1-6)]Man(b1-4)GlcNAc(b1-4)GlcNAc
# In short: as §1
# [7] = target: Fuc(a1-2)Gal(b1-3)GlcNAc(b1-2)Man(a1-3)[Fuc(a1-2)Gal(b1-3)GlcNAc(b1-2)Man(a1-6)]Man(b1-4)GlcNAc(b1-4)[Fuc(a1-6)]GlcNAc
# In short: as §1
# [8] = target: Fuc(a1-2)Gal(b1-3)GlcNAc(b1-3)Gal(b1-4)Glc
# In short: as §1
# [9] = target: Fuc(a1-2)Gal(b1-3)GlcNAc(b1-3)GalNAc
# In short: as §1
# [10] = target: Fuc(a1-2)Gal(b1-3)GlcNAc(b1-3)[Fuc(a1-2)Gal(b1-3)GlcNAc(b1-6)]GalNAc
# In short: as §1
# [11] = target: Fuc(a1-2)Gal(b1-3)GlcNAc(b1-3)[Gal(b1-4)GlcNAc(b1-6)]Gal(b1-4)Glc
# In short: as §1
# [12] = target: Fuc(a1-2)Gal(b1-3)GlcNAc(b1-3)[Neu5Ac(a2-6)Gal(b1-4)GlcNAc(b1-6)]Gal(b1-4)Glc
# In short: as §1
# [13] = target: Fuc(a1-2)Gal(b1-3)GlcNAc6S
# In short: as §1
# [14] = target: Fuc(a1-2)Gal(b1-3)[Fuc(a1-4)]GlcNAc
# In short: as §1
# [15] = target: Fuc(a1-2)Gal(b1-3)[Fuc(a1-4)]GlcNAc(b1-2)Man(a1-3)[Fuc(a1-2)Gal(b1-3)[Fuc(a1-4)]GlcNAc(b1-2)Man(a1-3)]Man(b1-4)GlcNAc(b1-4)GlcNAc
# In short: as §1
# [16] = target: Fuc(a1-2)Gal(b1-3)[Fuc(a1-4)]GlcNAc(b1-2)Man(a1-3)[Fuc(a1-2)Gal(b1-3)[Fuc(a1-4)]GlcNAc(b1-2)Man(a1-6)]Man(b1-4)GlcNAc(b1-4)[Fuc(a1-6)]GlcNAc(b1-4)[Fuc(a1-6)]GlcNAc
# In short: as §1
# [17] = target: Fuc(a1-2)Gal(b1-3)[Fuc(a1-4)]GlcNAc(b1-3)[Fuc(a1-3)[Gal(b1-4)]GlcNAc(b1-6)]Gal(b1-4)Glc
# In short: as §1
# [18] = target: Fuc(a1-2)Gal(b1-3)[Fuc(a1-4)]GlcNAc(b1-3)[Gal(b1-4)GlcNAc(b1-6)]Gal(b1-4)Glc
# In short: as §1
# Fuc(a1-2)Gal(b1-4)Glc = target: Fuc(a1-2)Gal(b1-4)Glc
# In short: as §1
# Fuc(a1-2)Gal(b1-4)Glc6S = target: Fuc(a1-2)Gal(b1-4)Glc6S
# In short: as §1
# Fuc(a1-2)Gal(b1-4)GlcNAc = target: Fuc(a1-2)Gal(b1-4)GlcNAc
# In short: as §1
# [19] = target: Fuc(a1-2)Gal(b1-4)GlcNAc(b1-2)Man
# In short: as §1
# [20] = target: Fuc(a1-2)Gal(b1-4)GlcNAc(b1-2)Man(a1-3)[Fuc(a1-2)Gal(b1-4)GlcNAc(b1-2)Man(a1-6)]Man(b1-4)GlcNAc(b1-4)GlcNAc
# In short: as §1
# [21] = target: Fuc(a1-2)Gal(b1-4)GlcNAc(b1-2)Man(a1-3)[Fuc(a1-2)Gal(b1-4)GlcNAc(b1-2)Man(a1-6)]Man(b1-4)GlcNAc(b1-4)[Fuc(a1-6)]GlcNAc
# In short: as §1
# [22] = target: Fuc(a1-2)Gal(b1-4)GlcNAc(b1-2)[Fuc(a1-2)Gal(b1-4)GlcNAc(b1-4)]Man(a1-3)[Fuc(a1-2)Gal(b1-4)GlcNAc(b1-2)Man(a1-6)]Man(b1-4)GlcNAc(b1-4)GlcNAc
# In short: as §1
# [23] = target: Fuc(a1-2)Gal(b1-4)GlcNAc(b1-3)Gal(b1-4)GlcNAc
# In short: as §1
# [24] = target: Fuc(a1-2)Gal(b1-4)GlcNAc(b1-3)Gal(b1-4)GlcNAc(b1-2)Man(a1-3)[Fuc(a1-2)Gal(b1-4)GlcNAc(b1-3)Gal(b1-4)GlcNAc(b1-2)Man(a1-6)]Man(b1-4)GlcNAc(b1-4)GlcNAc
# In short: as §1
binder,measurement,setting,value
B1,glycan array binding signal (z-score),Fuc(a1-2)Gal,-0.17
same,glycan array binding signal (z-score),Fuc(a1-2)Gal(b1-3)GalNAc,-0.183
same,glycan array binding signal (z-score),[1],-0.163
same,glycan array binding signal (z-score),[2],-0.167
same,glycan array binding signal (z-score),[3],-0.139
same,glycan array binding signal (z-score),[4],-0.184
same,glycan array binding signal (z-score),[5],-0.176
same,glycan array binding signal (z-score),Fuc(a1-2)Gal(b1-3)GlcNAc,-0.158
same,glycan array binding signal (z-score),[6],-0.162
same,glycan array binding signal (z-score),[7],-0.147
same,glycan array binding signal (z-score),[8],-0.168
same,glycan array binding signal (z-score),[9],-0.158
same,glycan array binding signal (z-score),[10],-0.148
same,glycan array binding signal (z-score),[11],-0.18
same,glycan array binding signal (z-score),[12],-0.165
same,glycan array binding signal (z-score),[13],-0.133
same,glycan array binding signal (z-score),[14],-0.179
same,glycan array binding signal (z-score),[15],-0.134
same,glycan array binding signal (z-score),[16],-0.105
same,glycan array binding signal (z-score),[17],-0.159
same,glycan array binding signal (z-score),[18],-0.14
same,glycan array binding signal (z-score),Fuc(a1-2)Gal(b1-4)Glc,-0.165
same,glycan array binding signal (z-score),Fuc(a1-2)Gal(b1-4)Glc6S,-0.184
same,glycan array binding signal (z-score),Fuc(a1-2)Gal(b1-4)GlcNAc,-0.166
same,glycan array binding signal (z-score),[19],-0.182
same,glycan array binding signal (z-score),[20],-0.148
same,glycan array binding signal (z-score),[21],-0.157
same,glycan array binding signal (z-score),[22],-0.114
same,glycan array binding signal (z-score),[23],-0.173
same,glycan array binding signal (z-score),[24],-0.14
